Experimental data: PubChem BioAssay AID624173 (National Center for Advancing Translational Sciences (NCATS), 2012)
Among all 410,000 compounds or so, about 490 (0.12%) were called active. Inconclusive results, whose numbers are uncertain, are shown with a selection of clear calls. The call rests on the fitted dose curve; in most records, active means well fitted inhibition curve with a large enough effect; inconclusive means small, poorly fitted or top-dose-only effect; inactive means flat fitted curve, though single readings scatter. Potencies of inconclusive entries are doubtful fits and often do not repeat. Some structures have more than one record in an assay (separate samples or runs), and their calls can disagree.

Target: pyruvate kinase (Trypanosoma brucei) (UniProt Q57TT1)
Assay: qHTS of Trypanosoma Brucei Inhibitors; further: nearly all actives have a fitted effect of over 50% in size
Conditions: TbPYK enzyme, Kinase-Glo Plus ATP luminescence, 45 min; series mostly up to 76.8 µM; activity, negative = inhibition: at the top concentration
In short: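 Readout: single end-point luminescence (Kinase-Glo Plus, 10 min). Reaction conditions were TbPYK/substrate plus 130 uM ADP, 45 min at RT, pH 7.2 TEA buffer. No-enzyme wells served as controls, and data were normalized before concentration-response fitting.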
On the % scale 0 is the no-effect control and ±100 the full control effect; potency means the concentration at half of the fitted maximal effect; tags describe the fitted curve by direction and shape.

Structure (SMILES)	activity, negative = inhibition	Potency
COc1cc([C@@H]2C[C@H]3CN(c4ccccc4)C(=O)[C@]34CCCN24)cc(OC)c1OC	inactive: -13.4%	–
CCSc1nc(-c2ccco2)ccc1C#N	–	inconclusive: 35.5 µM [inhibitor, single point]
CC(/C=N/n1c(-c2ccco2)n[nH]c1=S)=C\c1ccccc1	–	inconclusive: 10 µM [inhibitor, partial curve, poor fit]
Cc1cccc(-c2nnc(C3CCN(S(=O)(=O)c4cccc(Cl)c4)CC3)o2)c1	–	inconclusive: 3.16 µM [inhibitor, full curve, poor fit]
CCN(CC)c1ccc(C(=C2C=CC(=[N+](CC)CC)C=C2)c2ccc(S(=O)(=O)O)cc2S(=O)(=O)[O-])cc1	–	inconclusive: 39.8 µM [inhibitor, partial curve, poor fit]
COC(=O)c1c(NC(=O)CCCOc2cccc(C)c2)sc2c1C(C(=O)OC)CC2 (centres undefined)	–	inconclusive: 8.91 µM [inhibitor, partial curve]
Cc1cc(Cl)ccc1OCc1n[nH]c(=S)n1C1CCCCC1	–	inconclusive: 50.1 µM [inhibitor, single point]
CCOC(=O)c1cccc(NC(=O)/C=C/c2cccc([N+](=O)[O-])c2)c1	inactive: 0.494%	–
O=C(Nc1ccc(Cl)c(S(=O)(=O)N2CCCCC2)c1)c1ccco1	inactive: -1.27%	–
COc1cccc(C(=O)Nc2ccc(N3CCCC3)cc2)c1	–	inconclusive: 25.1 µM [inhibitor, partial curve, poor fit]
C=CCn1c(-c2cccc(Cl)c2)n[nH]c1=S	–	inconclusive: 7.94 µM [inhibitor, partial curve, poor fit]
CCOC(=O)Nc1ccc(NCc2ccc(F)cc2)nc1N	–	active: 31.6 µM
CC[n+]1c(/C=C/c2ccc(N(C)C)cc2)ccc2ccccc21	–	inconclusive: 28.2 µM [inhibitor, partial curve, poor fit]
COc1ccc(OC)c(NC(=O)C2CCCN(S(=O)(=O)c3cccc4nsnc34)C2)c1 (centres undefined)	–	inconclusive: 39.8 µM [inhibitor, single point]
CCOC(=O)c1ccc(-n2c(=O)[nH]c3ccccc3c2=O)cc1	inactive: 5.46%	–
Cc1ccc(C)c(-n2c(Cc3cccs3)n[nH]c2=S)c1	–	inconclusive: 17.8 µM [inhibitor, partial curve, poor fit]
COc1ccc(-c2n[nH]c(=S)n2-c2ccc(C)cc2C)cc1	–	active: 17.8 µM
Cc1ccc(OCC(=O)Nc2nnc(SCc3cc(=O)c4ccccc4[nH]3)s2)cc1	–	active: 28.2 µM
CC1(C)CC(N2CCN(Cc3ccccc3)CC2)=CC(=[N+]2CCCCC2)C1	–	inconclusive: 31.6 µM [inhibitor, single point]
C/C(=N/NC(=O)c1ccc(Br)o1)c1cccc(NC(=O)c2ccc(C)o2)c1	–	inconclusive: 31.6 µM [inhibitor, single point]
Oc1ccc(-c2n[nH]c(=S)n2-c2ccc3c(c2)OCCO3)c(O)c1	–	active: 2.82 µM
CC(C)(C)c1ccc(-c2nnc3sc(-c4ccncc4)nn23)cc1	–	inconclusive: 17.8 µM [inhibitor, partial curve]
CC1(C(=O)Nc2cccnc2)Cc2c(-c3cccc(C(F)(F)F)c3)ccnc2O1 (centres undefined)	inactive: -0.087%	–

Structure (SMILES)	activity, negative = inhibition	Potency
Cc1occc1C(=O)NNC(=O)Nc1ccc(Cl)c(Cl)c1	–	inconclusive: 50.1 µM [inhibitor, single point]
CC(C)(c1ccccc1)c1ccc(OCCn2cnc3ccccc3c2=O)cc1	inactive: 5.48%	–
S=c1[nH]nc(-c2cccs2)n1C1CCCCC1	–	active: 7.08 µM
COc1ccc(N=C2C(=S)N(c3ccc(OC)cc3)C(=NS(=O)(=O)c3ccccc3)N2c2ccccc2)cc1	–	inconclusive: 5.01 µM [inhibitor, full curve, poor fit]
CC(NS(=O)(=O)c1ccccc1)c1n[nH]c(=S)n1-c1ccccc1 (centres undefined)	–	inconclusive: 11.2 µM [inhibitor, partial curve, poor fit]
Cc1ccccc1OCc1ccc(-c2nc(C#N)c(NCc3cccnc3)o2)o1	inactive: -2.07%	–
N.N.O=C(O)C1(C(=O)O)CCC1.[Pt]	–	inconclusive: 12.6 µM [inhibitor, partial curve, poor fit]
CC(C)Oc1ccccc1NC(=O)CSc1nc2ccccc2c(=O)n1C	–	inconclusive: 28.2 µM [inhibitor, single point]
Cc1ccc2oc3nc(C)c(C(=O)O)cc3c(=O)c2c1	–	inconclusive: 31.6 µM [inhibitor, partial curve, poor fit]
O=C1NC(=O)C(=Cc2ccc(-c3ccc(F)cc3O)o2)C(=O)N1	–	inconclusive: 31.6 µM [inhibitor, partial curve]
CC(C)(C=O)C1=CC(=O)c2ccccc2C1=O	–	inconclusive: 3.55 µM [inhibitor, full curve, poor fit]
CC1OC(CC(=O)O)CC2=C1C(=O)c1c(O)cccc1C2=O (centres undefined)	–	inconclusive: 2.82 µM [inhibitor, full curve]
CCOC(=O)N1CCC(NC(=O)c2ccc3c(c2)N(CC)CCS3)CC1	–	inconclusive: 39.8 µM [inhibitor, partial curve, poor fit]
CN(C)c1nc(-c2ccccc2)[n+](C)s1	–	inconclusive: 20 µM [inhibitor, partial curve]
CCCn1c(SCC(=O)c2cc(OC)ccc2OC)nnc1C(C)C	–	inconclusive: 35.5 µM [inhibitor, partial curve, poor fit]
O=C(Cc1ccc(F)cc1)Nc1nnc2n1CCS2	inactive: -4.15%	–
CCOC(=O)c1sc(NC(=O)CC2OC(=O)c3ccccc32)nc1C (centres undefined)	inactive: -4.46%	–
CN1C(=O)C(=Cc2ccc(SC3CCCCC3)o2)C(=O)N(C)C1=O	–	inconclusive: 50.1 µM [inhibitor, single point]
CC(=O)N1Cc2ccccc2CC1C(=O)O (centres undefined)	–	inconclusive: 35.5 µM [inhibitor, single point]
Clc1ccc(Cn2c(/C=C/c3ccco3)nc3ccccc32)cc1	inactive: -11.5%	–
CC(C)c1ccc(NC(=O)CN2C(=O)COc3ccc(S(=O)(=O)N4CCCCCC4)cc32)cc1	inactive: -10.6%	–
Nc1c(C(=O)Nc2ccccc2)sc2nc(N3CCOCC3)c3c(c12)CCCC3	–	inconclusive: 7.94 µM [inhibitor, partial curve, poor fit]
C=CCNC(=S)NNC(=O)c1cccn(Cc2ccc(Cl)cc2Cl)c1=O	–	active: 11.2 µM

Structure (SMILES)	activity, negative = inhibition	Potency
Cc1ccc(NC(=S)c2ccncc2)c(C)c1	inactive: -1.59%	–
O=C(NC1CCCCC1)C1CCN(C(=O)NCc2ccccc2)CC1	inactive: 5.85%	–
COc1cccc(C2NC(=O)c3sc(=S)n(-c4ccccc4)c3N2)c1 (centres undefined)	–	inconclusive: 50.1 µM [inhibitor, single point]
CCn1c(COc2ccc(Cl)cc2)nnc1SCc1nc2ccccc2[nH]1	–	inconclusive: 20 µM [inhibitor, partial curve]
Cc1cc(C)c2c(=O)n(CC(=O)NCCCN3CCN(c4ccccc4F)CC3)sc2n1	–	inconclusive: 3.55 µM [inhibitor, full curve, poor fit]
Cc1cc(C)c2c(N)c(C(=O)N3CCN(c4ncccn4)CC3)sc2n1	–	inconclusive: 11.2 µM [inhibitor, partial curve]
COC(=O)c1nn(-c2ccc3c(c2)CCN3C(C)=O)cc1O	–	active: 17.8 µM
CCCc1cc(=O)[nH]c2nnc(SCC(=O)NC3CCCC3)n12	–	inconclusive: 8.91 µM [inhibitor, partial curve, poor fit]
CCOC(=O)C1CCCN(C(=O)c2ccc(-c3ccc([N+](=O)[O-])cc3)o2)C1 (centres undefined)	–	inconclusive: 31.6 µM [inhibitor, partial curve]
CC(c1nc2ccccc2n1Cc1ccccc1)N1CCCCC1 (centres undefined)	inactive: 8.48%	–
Cc1ccc(-n2c(C)n[nH]c2=S)cc1C	–	inconclusive: 5.62 µM [inhibitor, partial curve]
COc1ccc(OC)c(NC(=O)CS(=O)(=O)Cc2nc(-c3ccccc3C)oc2C)c1	–	inconclusive: 28.2 µM [inhibitor, single point]
S=C1NC2=C(CCC/C2=C\c2ccccc2)C(c2ccccc2)N1 (centres undefined)	–	inconclusive: 35.5 µM [inhibitor, partial curve, poor fit]
CCn1c(CCc2ccccc2)n[nH]c1=S	–	inconclusive: 11.2 µM [inhibitor, partial curve]
Cc1ccc(N2CCN(/N=C/c3sccc3C)CC2)cc1	inactive: -4.51%	–
Cc1ccc(NC(=O)C2C(c3ccccc3)C2(Cl)Cl)c(C)c1 (centres undefined)	–	inconclusive: 50.1 µM [inhibitor, single point]
CCOC(=O)c1c(-c2ccc(C)o2)csc1NC(=O)CSc1ncn[nH]1	–	inconclusive: 35.5 µM [inhibitor, single point]
CCN=C(N/N=C/c1ccc([N+](=O)[O-])cc1)SC	–	inconclusive: 50.1 µM [inhibitor, single point]
CCOc1ccc(/C(CCC(=O)O)=N/NC(=S)NC(C)C)cc1	inactive: -12.5%	–
COCCN(C(=S)Nc1c(C)cc(C)cc1C)C(C)c1cccnc1 (centres undefined)	–	inconclusive: 28.2 µM [inhibitor, partial curve]
Cc1csc(Nc2ccc(Cl)cc2)[n+]1-c1ccc(Cl)cc1	–	inconclusive: 1 µM [inhibitor, full curve, poor fit]
CC(C)(C)c1cc(-c2n[nH]c(=S)n2-c2ccc(Cl)cc2)n[nH]1	–	inconclusive: 5.62 µM [inhibitor, full curve]
CN1C(=CC=C2C=C(I)C(=O)C(I)=C2)C(C)(C)c2ccccc21	–	inconclusive: 14.1 µM [inhibitor, partial curve, poor fit]
